# This is one part of the list.
# What was measured:
# Assay in all cases: glycan array binding signal (z-score within array); higher = stronger binding
# Settings in all cases: glycan notation: IUPAC condensed, linker removed
# [1] = target: Fuc(a1-2)[GalNAc(a1-3)]Gal(b1-4)GlcNAc(b1-3)GalNAc
# Procedure, shortened: (§1)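 Negative Z-scores can be read as non-binding. The Z-score is calculated within each array and then averaged across arrays of one protein sequence at different concentrations or buffers and across linkers. Arrays, 3228 in all, were curated from the Consortium for Functional Glycomics database and kept only where the protein sequence was available.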
# [2] = target: Fuc(a1-2)[GalNAc(a1-3)]Gal(b1-4)[Fuc(a1-3)]GlcNAc
# Procedure, shortened: as §1
# [3] = target: Fuc(a1-2)[GalNAc(a1-3)]Gal(b1-4)[Fuc(a1-3)]GlcNAc(b1-3)GalNAc
# Procedure, shortened: as §1
# [4] = target: Fuc(a1-2)[GalNAc(a1-4)]Gal(b1-4)GlcNAc
# Procedure, shortened: as §1
# [5] = target: Fuc(a1-2)[GalNAc(b1-3)]Gal
# Procedure, shortened: as §1
# [6] = target: Fuc(a1-3)GlcNAc
# Procedure, shortened: as §1
# [7] = target: Fuc(a1-3)[Gal(b1-4)]Glc6S
# Procedure, shortened: as §1
# [8] = target: Fuc(a1-3)[Gal(b1-4)]GlcNAc
# Procedure, shortened: as §1
# [9] = target: Fuc(a1-3)[Gal(b1-4)]GlcNAc(b1-2)Man(a1-3)[Fuc(a1-3)[Gal(b1-4)]GlcNAc(b1-2)Man(a1-6)]Man(b1-4)GlcNAc(b1-4)GlcNAc
# Procedure, shortened: as §1
# [10] = target: Fuc(a1-3)[Gal(b1-4)]GlcNAc(b1-2)Man(a1-3)[Fuc(a1-3)[Gal(b1-4)]GlcNAc(b1-2)Man(a1-6)]Man(b1-4)GlcNAc(b1-4)[Fuc(a1-6)]GlcNAc
# Procedure, shortened: as §1
# [11] = target: Fuc(a1-3)[Gal(b1-4)]GlcNAc(b1-3)Gal(b1-3)[Fuc(a1-4)]GlcNAc
# Procedure, shortened: as §1
# [12] = target: Fuc(a1-3)[Gal(b1-4)]GlcNAc(b1-3)GalNAc
# Procedure, shortened: as §1
# [13] = target: Fuc(a1-3)[Gal(b1-4)]GlcNAc(b1-4)Gal(b1-4)[Fuc(a1-3)]GlcNAc
# Procedure, shortened: as §1
# [14] = target: Fuc(a1-3)[Gal(b1-4)]GlcNAc(b1-4)Gal(b1-4)[Fuc(a1-3)]GlcNAc(b1-4)Gal(b1-4)[Fuc(a1-3)]GlcNAc
# Procedure, shortened: as §1
# [15] = target: Fuc(a1-3)[Gal(b1-4)]GlcNAc(b1-6)[Gal(b1-3)GlcNAc(b1-3)]Gal(b1-4)Glc
# Procedure, shortened: as §1
# [16] = target: Fuc(a1-3)[Gal(b1-4)]GlcNAc6S
# Procedure, shortened: as §1
# [17] = target: Fuc(a1-3)[Gal3S(b1-4)]GlcNAc
# Procedure, shortened: as §1
# [18] = target: Fuc(a1-3)[Gal3S(b1-4)]GlcNAc6S
# Procedure, shortened: as §1
# [19] = target: Fuc(a1-3)[GalNAc(b1-4)]GlcNAc
# Procedure, shortened: as §1
# [20] = target: Fuc(a1-4)GlcNAc
# Procedure, shortened: as §1
# [21] = target: Fuc(b1-3)GlcNAc
# Procedure, shortened: as §1
# [22] = target: Gal(a1-2)Gal
# Procedure, shortened: as §1
# [23] = target: Gal(a1-3)Gal
# Procedure, shortened: as §1
# [24] = target: Gal(a1-3)Gal(b1-3)GlcNAc
# Procedure, shortened: as §1
# [25] = target: Gal(a1-3)Gal(b1-3)GlcNAc(b1-2)Man(a1-3)[Gal(a1-3)Gal(b1-3)GlcNAc(b1-2)Man(a1-6)]Man(b1-4)GlcNAc(b1-4)GlcNAc
# Procedure, shortened: as §1
# [26] = target: Gal(a1-3)Gal(b1-3)GlcNAc(b1-3)GalNAc
# Procedure, shortened: as §1
# [27] = target: Gal(a1-3)Gal(b1-3)[Fuc(a1-4)]GlcNAc(b1-2)Man(a1-3)[Gal(a1-3)Gal(b1-3)[Fuc(a1-4)]GlcNAc(b1-2)Man(a1-6)]Man(b1-4)GlcNAc(b1-4)GlcNAc
# Procedure, shortened: as §1
# [28] = target: Gal(a1-3)Gal(b1-4)Glc
# Procedure, shortened: as §1
# [29] = target: Gal(a1-3)Gal(b1-4)GlcNAc
# Procedure, shortened: as §1
# [30] = target: Gal(a1-3)Gal(b1-4)GlcNAc(b1-3)GalNAc
# Procedure, shortened: as §1
# [31] = target: Gal(a1-3)Gal(b1-4)[Fuc(a1-3)]GlcNAc
# Procedure, shortened: as §1
# [32] = target: Gal(a1-3)Gal(b1-4)[Fuc(a1-3)]GlcNAc(b1-2)Man(a1-3)[Gal(a1-3)Gal(b1-4)[Fuc(a1-3)]GlcNAc(b1-2)Man(a1-6)]Man(b1-4)GlcNAc(b1-4)GlcNAc
# Procedure, shortened: as §1
# [33] = target: Gal(a1-3)GalNAc
# Procedure, shortened: as §1
# [34] = target: Gal(a1-3)[Gal(a1-4)]Gal(b1-4)GlcNAc
# Procedure, shortened: as §1
# [35] = target: Gal(a1-4)Gal(b1-3)GlcNAc(b1-2)Man(a1-3)[Gal(a1-4)Gal(b1-3)GlcNAc(b1-2)Man(a1-6)]Man(b1-4)GlcNAc(b1-4)GlcNAc
# Procedure, shortened: as §1
# [36] = target: Gal(a1-4)Gal(b1-4)Glc
# Procedure, shortened: as §1
# [37] = target: Gal(a1-4)Gal(b1-4)GlcNAc
# Procedure, shortened: as §1
binder,measurement,setting,value
Gal 3 (Canis lupus) (protein) MADSFSLNDALSGSGNPNPQGWPGPWGNQPAGAGGYPGASYPGAYPGQAPPGGYPGQAPPGGYPGQAPPGGYPGQAPPGGYPGQAPPGGYPGQAPPGTYPGPTAPAYPGPTAPGTQPGQPSGPGAYPPPGQPSAPGAYPAAGPFGIPAGPLTVPYDLPLPGGVKPRMLITILGTVRPSANRLALDFKRGNDVAFHFNPRFNEDNKRVIVCNTKLDNIWGKEERQAAFPFESGKPFKIQVLVESDHFKVAVNDAHLLQYNHRMKNLPEISKLGISGDIDLTSASYAMI,glycan array binding signal (z-score),[1],-0.128
same,glycan array binding signal (z-score),[2],-0.253
same,glycan array binding signal (z-score),[3],-0.144
same,glycan array binding signal (z-score),[4],-0.257
same,glycan array binding signal (z-score),[5],-0.272
same,glycan array binding signal (z-score),[6],-0.247
same,glycan array binding signal (z-score),[7],-0.242
same,glycan array binding signal (z-score),[8],-0.26
same,glycan array binding signal (z-score),[9],-0.259
same,glycan array binding signal (z-score),[10],-0.155
same,glycan array binding signal (z-score),[11],-0.263
same,glycan array binding signal (z-score),[12],-0.246
same,glycan array binding signal (z-score),[13],-0.254
same,glycan array binding signal (z-score),[14],-0.249
same,glycan array binding signal (z-score),[15],-0.225
same,glycan array binding signal (z-score),[16],-0.161
same,glycan array binding signal (z-score),[17],-0.24
same,glycan array binding signal (z-score),[18],-0.103
same,glycan array binding signal (z-score),[19],-0.261
same,glycan array binding signal (z-score),[20],-0.263
same,glycan array binding signal (z-score),[21],-0.256
same,glycan array binding signal (z-score),[22],-0.249
same,glycan array binding signal (z-score),[23],-0.26
same,glycan array binding signal (z-score),[24],-0.162
same,glycan array binding signal (z-score),[25],-0.192
same,glycan array binding signal (z-score),[26],-0.143
same,glycan array binding signal (z-score),[27],-0.226
same,glycan array binding signal (z-score),[28],-0.239
same,glycan array binding signal (z-score),[29],-0.063
same,glycan array binding signal (z-score),[30],-0.032
same,glycan array binding signal (z-score),[31],-0.257
same,glycan array binding signal (z-score),[32],-0.227
same,glycan array binding signal (z-score),[33],-0.27
same,glycan array binding signal (z-score),[34],-0.259
same,glycan array binding signal (z-score),[35],-0.234
same,glycan array binding signal (z-score),[36],-0.264
same,glycan array binding signal (z-score),[37],-0.256

# Reference: the supplement of paper PMC8728848
